{"source": "paper PMC11995724", "about": "“Antibiotic target discovery by integrated phenotypic and activity-based profiling of electrophilic fragments” (Cell chemical biology, 2025)", "note": "About 110 (3.4%) of roughly 3,200 compounds showed an effect of 50% or more. This is one part of the list."}
{"tested_on": "T1, V. cholerae SAD30", "T1 construct": "SAD30", "parameters": "species or system S. aureus MSSA476 (TSB) or V. cholerae SAD30 (LB); 384-well bacterial growth screen at 25 uM, OD600 relative to DMSO control", "conditions": "relative growth, OD600, LB; 25 µM; inhibitor", "units": {"% of control remaining": "%"}}
{"compound": "N#CC(=Cc1ccc(N2CCOCC2)cc1)C(=O)NCC1CCCO1", "note": "(centres unmarked) [9-O10, 2-cyano-3-[4-(morpholin-4-yl)phenyl]-N-[(oxolan-2-yl)methyl]prop-2-enamide]", "% of control remaining": 86.9477}
{"compound": "N#CC(=Cc1cccc(F)c1F)C(=O)NC(N)=O", "note": "[8-H04, {2-cyano-2-[(2,3-difluorophenyl)methylidene]acetyl}urea]", "% of control remaining": 77.2944}
{"compound": "CSc1ccc(C(=O)CCl)cc1", "note": "[10-E07, 2-chloro-1-[4-(methylsulfanyl)phenyl]ethan-1-one]", "% of control remaining": 0}
{"compound": "CNC(=O)c1cc(OC2CCN(C(=O)C(C)Cl)C2)ccn1", "note": "(centres unmarked) [7-G03, 4-{[1-(2-chloropropanoyl)pyrrolidin-3-yl]oxy}-N-methylpyridine-2-carboxamide]", "% of control remaining": 92.7804}
{"compound": "Cc1nn(C)c(NC(=O)C(C)Cl)c1-c1ccccc1", "note": "(centres unmarked) [7-F21, 2-chloro-N-(1,3-dimethyl-4-phenyl-1H-pyrazol-5-yl)propanamide]", "% of control remaining": 81.0177}
{"compound": "C=CC(=O)NC(C)(C)c1nc(-c2ccccc2F)c(C)s1", "note": "[1-H04, N-{2-[4-(2-fluorophenyl)-5-methyl-1,3-thiazol-2-yl]propan-2-yl}prop-2-enamide]", "% of control remaining": 113.346}
{"compound": "CC(C)(C)C(=O)NCc1ccc(C(=O)CCl)s1", "note": "[10-P10, N-{[5-(2-chloroacetyl)thiophen-2-yl]methyl}-2,2-dimethylpropanamide]", "% of control remaining": 110.657}
{"compound": "C=CC(=O)N1CCC(Cc2nc(CC)no2)CC1", "note": "[3-A11, 1-{4-[(3-ethyl-1,2,4-oxadiazol-5-yl)methyl]piperidin-1-yl}prop-2-en-1-one]", "% of control remaining": 116.791}
{"compound": "Cc1cccc(NC(=O)C(C#N)=Cc2ccc(F)cc2)c1", "note": "[9-E12, 2-cyano-3-(4-fluorophenyl)-N-(3-methylphenyl)prop-2-enamide]", "% of control remaining": 80.0136}
{"compound": "C=CC(=O)NCCC1COCCO1", "note": "(centres unmarked) [2-H15, N-[2-(1,4-dioxan-2-yl)ethyl]prop-2-enamide]", "% of control remaining": 92.6662}
{"compound": "C=CC(=O)NCC1(c2ccccc2Cl)CCCCC1", "note": "[1-A17, N-{[1-(2-chlorophenyl)cyclohexyl]methyl}prop-2-enamide]", "% of control remaining": 63.0792}
{"compound": "Cc1ccc2nc(-c3ccc(N4C(=O)C=CC4=O)cc3)sc2c1", "note": "[10-K18, 1-[4-(6-methyl-1,3-benzothiazol-2-yl)phenyl]-2,5-dihydro-1H-pyrrole-2,5-dione]", "% of control remaining": 99.1233}
{"compound": "CC(Cl)C(=O)NCc1ccc(F)cc1", "note": "(centres unmarked) [5-A19, 2-chloro-N-[(4-fluorophenyl)methyl]propanamide]", "% of control remaining": 104.739}
{"compound": "N#CC(=Cc1sc2ccccc2c1Cl)C(=O)Nc1nccs1", "note": "[9-F15, 3-(3-chloro-1-benzothiophen-2-yl)-2-cyano-N-(1,3-thiazol-2-yl)prop-2-enamide]", "% of control remaining": 76.0707}
{"compound": "C=CC(=O)Nc1nc2c(s1)-c1cc(OC)ccc1CC2", "note": "[1-J21, N-{8-methoxy-4H,5H-naphtho[2,1-d][1,3]thiazol-2-yl}prop-2-enamide]", "% of control remaining": 88.7892}
{"compound": "C=CC(=O)N1CCCC(Cc2noc(C)n2)C1", "note": "(centres unmarked) [1-L20, 1-{3-[(5-methyl-1,2,4-oxadiazol-3-yl)methyl]piperidin-1-yl}prop-2-en-1-one]", "% of control remaining": 89.5486}
{"compound": "Cc1ccc2nc(-c3ccc(NC(=O)CCl)cc3)sc2c1", "note": "[6-I05, 2-chloro-N-[4-(6-methyl-1,3-benzothiazol-2-yl)phenyl]acetamide]", "% of control remaining": 96.9191}
{"compound": "COc1ccc(Cl)cc1CNC(=O)CCl", "note": "[6-A16, 2-chloro-N-[(5-chloro-2-methoxyphenyl)methyl]acetamide]", "% of control remaining": 95.2507}
{"compound": "N#CC(=Cc1cccc([N+](=O)[O-])c1)C(=O)NCc1ccc(Cl)cc1", "note": "[8-F16, N-[(4-chlorophenyl)methyl]-2-cyano-3-(3-nitrophenyl)prop-2-enamide]", "% of control remaining": 65.8736}
{"compound": "O=C(CCl)N1C2CCC1c1ccccc12", "note": "[5-M11, 1-{11-azatricyclo[6.2.1.0,2,7]undeca-2,4,6-trien-11-yl}-2-chloroethan-1-one]", "% of control remaining": 91.2893}
{"compound": "O=C(CCl)Nc1ccccc1C(=O)Nc1ccc(F)cc1", "note": "[6-D12, 2-(2-chloroacetamido)-N-(4-fluorophenyl)benzamide]", "% of control remaining": 87.9704}
{"compound": "C=CC(=O)N1CCC(C(=O)NC2CCOC3(CCSCC3)C2)CC1", "note": "(centres unmarked) [2-B12, N-{1-oxa-9-thiaspiro[5.5]undecan-4-yl}-1-(prop-2-enoyl)piperidine-4-carboxamide]", "% of control remaining": 92.6662}
{"compound": "Cc1ccc2[nH]c3c(c2c1)CCCC3N(C)C(=O)CCl", "note": "(centres unmarked) [6-H07, 2-chloro-N-methyl-N-(6-methyl-2,3,4,9-tetrahydro-1H-carbazol-1-yl)acetamide]", "% of control remaining": 96.9191}
{"compound": "COc1ccc(C=C(C#N)C(=O)Nc2ccccc2Cl)cc1O", "note": "[8-C21, N-(2-chlorophenyl)-2-cyano-3-(3-hydroxy-4-methoxyphenyl)prop-2-enamide]", "% of control remaining": 80.4215}
{"compound": "CCCc1cc(NC(=O)CCl)n(-c2ccccc2)n1", "note": "[4-M03, 2-chloro-N-(1-phenyl-3-propyl-1H-pyrazol-5-yl)acetamide]", "% of control remaining": 103.17}
{"compound": "CC(Cl)C(=O)NCCn1cccc1", "note": "(centres unmarked) [7-G21, 2-chloro-N-[2-(1H-pyrrol-1-yl)ethyl]propanamide]", "% of control remaining": 84.3218}
{"compound": "C=CC(=O)NC12CC3(C)CC(C)(CC(O)(C3)C1)C2", "note": "[1-K17, N-(3-hydroxy-5,7-dimethyladamantan-1-yl)prop-2-enamide]", "% of control remaining": 86.0987}
{"compound": "C=CC(=O)N1CCCn2nc(CO)cc2C1", "note": "[3-M10, 1-[2-(hydroxymethyl)-4H,5H,6H,7H,8H-pyrazolo[1,5-a][1,4]diazepin-5-yl]prop-2-en-1-one]", "% of control remaining": 96.1478}
{"compound": "C=CC(=O)NCc1ccc(-c2noc(C)n2)cc1", "note": "[3-P22, N-{[4-(5-methyl-1,2,4-oxadiazol-3-yl)phenyl]methyl}prop-2-enamide]", "% of control remaining": 119.79}
